{"source": "patent US9598459B2", "about": "“Pharmaceutical compositions and methods” (priority 2015, dated 2017)", "system": "Tacaribe TRVL11573", "type": "cell-based, Tacaribe virus", "details": "TRVL 11573, Vero", "note": "Where two headings read alike, the source gives them in different places.", "data": [{"smiles": "CC#CC1(O)CCC2C3CCC4=CC(=NNC(N)=S)CCC4=C3C(c3ccc4c(c3)OCO4)CC21C.CC#CC1(O)CCC2C3CCC4=CC(=O)CCC4=C3C(c3ccc4c(c3)OCO4)CC21C.CC(C)=O.CCO.O", "note": "(stereo not drawn) [PT155, ⅓ (11β,17β)-17-Hydroxy-11-[3,4-(methylenedioxy)phenyl]-17-(1-propyn-1-yl)estra-4,9-dien-3-one (ORG34517)×(2EZ)-2-{(11β,17β)-17-hydroxy-11-[3,4-(methylenedioxy)phenyl]-17-(1-propyn-1-yl)estra-4,9-dien-3-ylidene}hydrazinecarbothioamide [71.8% (E), 28.2% (Z)] hemihydrate×¾% acetone× ⅛ ethanol]", "values": [{"measurement": "EC50", "setting": "Neutral red", "result": ">3.8", "unit": "µg/mL"}, {"measurement": "EC50", "setting": "Visual", "result": ">5.9", "unit": "µg/mL"}]}]}
